Source: publication PMC3060121
Results are given in words; binding and its absence hold for the method and conditions named. Some binding calls cover weakened binding; strength is not graded here. For part of these data: Sequences can lack the tags named with a protein.

Experiments:
Test in all cases: two-hybrid; GAL4 based, S. cerevisiae PCY2; Gal4AD-Pex5p(C) with Gal4DB-SCP2 variants; β-galactosidase activity (A420 per mg protein per min), mean of three measurements
[1] = molecular target: Gal4DB-mSCP2 (21-143), two-hybrid fusion (human) (UniProt P22307)
[2] = molecular target: Gal4DB-preSCP2 (1-143), two-hybrid fusion (human) (UniProt P22307)
[3] = molecular target: T1, Gal4DB-preSCP2ΔAKL (1-140), two-hybrid fusion (human) (UniProt P22307)
T1 sequence: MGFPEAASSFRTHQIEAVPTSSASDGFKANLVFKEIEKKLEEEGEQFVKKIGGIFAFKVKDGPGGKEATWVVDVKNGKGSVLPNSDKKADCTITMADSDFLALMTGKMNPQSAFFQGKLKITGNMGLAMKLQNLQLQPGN

[4] = molecular target: T2, Gal4DB-mSCP2ΔAKL (21-140), two-hybrid fusion (human) (UniProt P22307)
T2 sequence: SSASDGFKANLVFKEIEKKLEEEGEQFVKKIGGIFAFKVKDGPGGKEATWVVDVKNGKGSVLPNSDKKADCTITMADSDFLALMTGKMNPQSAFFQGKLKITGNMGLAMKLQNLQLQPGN

| binding [1] | binding [2] | binding [3] | binding [4] | Substance |
| --- | --- | --- | --- | --- |
| binds | binds | – | – | Gal4AD-Pex5p(C) (residues 315-639) D624W, two-hybrid fusion (from UniProt P50542 315-639) (domain or fragment) |
| binds | binds | no binding | no binding | Gal4AD-Pex5p(C) (residues 315-639), wild-type, two-hybrid fusion (from UniProt P50542 315-639) (domain or fragment) |
